{"source": "paper PMC8732845", "about": "“Novel interaction between neurotrophic factor-α1/carboxypeptidase E and serotonin receptor, 5-HTR1E, protects human neurons against oxidative/neuroexcitotoxic stress via β-arrestin/ERK signaling” (Cellular and Molecular Life Sciences: CMLS, 2021)", "binders": {"B1": {"name": "5-hydroxytryptamine receptor 1-E (5-HTR1E) on stably transfected HEK293 cells (receptor, human, UniProt P28566 1-365, looked up)", "chain": "MNITNCTTEASMAIRPKTITEKMLICMTLVVITTLTTLLNLAVIMAIGTTKKLHQPANYLICSLAVTDLLVAVLVMPLSIIYIVMDRWKLGYFLCEVWLSVDMTCCTCSILHLCVIALDRYWAITNAIEYARKRTAKRAALMILTVWTISIFISMPPLFWRSHRRLSPPPSQCTIQHDHVIYTIYSTLGAFYIPLTLILILYYRIYHAAKSLYQKRGSSRHLSNRSTDSQNSFASCKLTQTFCVSDFSTSDPTTEFEKFHASIRIPPFDNDLDHPGERQQISSTRERKAARILGLILGAFILSWLPFFIKELIVGLSIYTVSSEVADFLTWLGYVNSLINPLLYTSFNEDFKLAFKKLIRCREHT", "notes": "5-hydroxytryptamine receptor 1E, human, stably expressed on HEK293 cells; also called serotonin receptor 5-HTR1E; source: HEK293 cells stably expressing 5-HTR1E (Dr. Bryan Roth's laboratory), on cells"}}, "target": "T1, [125I] NF-α1/CPE (radiolabelled recombinant neurotrophic factor-α1/carboxypeptidase E) (mouse, UniProt Q00493 28-476, 125I label (residues not stated))", "T1 construct": "neurotrophic factor-α1/carboxypeptidase E, mouse, recombinant, 53 kDa; also called hot CPE; source: recombinant, custom-synthesized and highly purified by GenScript", "assay": "radioligand binding; saturation binding: ~200,000 5-HTR1E stable HEK293 cells with 1.25–30 nM [125I] NF-α1/CPE, with or without 500 nM cold NF-α1/CPE, 1 ml serum-free DMEM, 3 h on ice; specific binding fitted by non-linear regression (GraphPad PRISM 8.0)", "conditions": "one partner purified"}
{"binder": "B1", "values": [{"measurement": "Kd", "result": 13.8, "unit": "nM"}]}
